Some of the results follow. No stated cut-off is given here; in the data, active = 3.2 or more and inactive = the rest. Most of these values are background signal.
These binders were tested against SHP2 C-SH2 domain E139D (assay: enrichment score (SH2-bound / input frequency) (ratio); bacterial display of known human phosphotyrosine sites (pTyr-Var adds point mutants) read by sequencing; higher = stronger binding; tyrosines were phosphorylated by kinases first). Settings: peptide library: pTyr-Var.
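Further: displayed peptides selected on beads carrying the immobilized SH2 domain, with library peptides lacking any tyrosine serving as negative controls.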

Enrichment score, inactive:
YQKDVYDIPPS [NEDD9_Y177] 0.58
ERDTVYSSSGV [NELL2_Y350_N347D] 0.485
VSGIPYSQPKQ [NEU1_Y251_G252S] 0.477
FSPGSNERETF [NF1_Y2192_Y2192N] 0.647
TRSYKCLLLSM [NF1_Y491_Y491C] 1.79
ARKRKYFKKHE [NFIX_Y40] 0.383
EVTLTYATGIK [NFKB1_Y485_T489I] 0.813
GRDVIYKGFED [NFU1_Y194_G190R] 0.686
TSESSYFKSLN [NGEF_Y288_A286S_YF] 0.598
SEASFYKSLNL [NGEF_Y289_YF] 0.946
RSDSSYRMSAT [NHS_Y1532] 0.594
SHPSSYTTHPQ [NIPBL_Y195] 0.633
TSYSGYRCHRH [NKAPL_Y94_Y96C] 1.18
AGIENYKSRFG [NKD2_Y256_T257K] 0.765
MTYVFYRENLR [NLRP14_Y443] 1.63
MTYMFYRENLR [NLRP14_Y443_V441M] 1.67
AQQPIYIRVEG [NLRP7_Y318_V319I] 1.03
GLIPAYHRFIM [NMNAT1_Y64_V67F] 2.17
DYLEKYYKFGS [NNMT_Y24] 1.42

These binders were tested against SHP2 C-SH2 domain wild-type in the same assay as above. Settings: peptide library: pTyr-Var.

Enrichment score, inactive:
YQKDVYDIPPS [NEDD9_Y177] 0.617
ERDTVYSSSGV [NELL2_Y350_N347D] 0.567
VSGIPYSQPKQ [NEU1_Y251_G252S] 0.596
FSPGSNERETF [NF1_Y2192_Y2192N] 0.617
TRSYKCLLLSM [NF1_Y491_Y491C] 1.66
ARKRKYFKKHE [NFIX_Y40] 0.438
EVTLTYATGIK [NFKB1_Y485_T489I] 0.873
GRDVIYKGFED [NFU1_Y194_G190R] 0.67
TSESSYFKSLN [NGEF_Y288_A286S_YF] 0.538
SEASFYKSLNL [NGEF_Y289_YF] 1.03
RSDSSYRMSAT [NHS_Y1532] 0.491
SHPSSYTTHPQ [NIPBL_Y195] 0.449
TSYSGYRCHRH [NKAPL_Y94_Y96C] 0.987
AGIENYKSRFG [NKD2_Y256_T257K] 0.687
MTYVFYRENLR [NLRP14_Y443] 1.36
MTYMFYRENLR [NLRP14_Y443_V441M] 1.13
AQQPIYIRVEG [NLRP7_Y318_V319I] 0.969
GLIPAYHRFIM [NMNAT1_Y64_V67F] 2.08
DYLEKYYKFGS [NNMT_Y24] 1.01

These binders were tested against SHP2 N-SH2 domain L43F in the same assay as above. Settings: peptide library: pTyr-Var.

Enrichment score, inactive:
YQKDVYDIPPS [NEDD9_Y177] 0.703
ERDTVYSSSGV [NELL2_Y350_N347D] 0.481
VSGIPYSQPKQ [NEU1_Y251_G252S] 0.61
FSPGSNERETF [NF1_Y2192_Y2192N] 0.566
TRSYKCLLLSM [NF1_Y491_Y491C] 1.45
ARKRKYFKKHE [NFIX_Y40] 0.291
EVTLTYATGIK [NFKB1_Y485_T489I] 0.839
GRDVIYKGFED [NFU1_Y194_G190R] 0.601
TSESSYFKSLN [NGEF_Y288_A286S_YF] 0.596
SEASFYKSLNL [NGEF_Y289_YF] 0.84
RSDSSYRMSAT [NHS_Y1532] 0.532
SHPSSYTTHPQ [NIPBL_Y195] 0.399
TSYSGYRCHRH [NKAPL_Y94_Y96C] 0.913
AGIENYKSRFG [NKD2_Y256_T257K] 0.7
MTYVFYRENLR [NLRP14_Y443] 1.68
MTYMFYRENLR [NLRP14_Y443_V441M] 1.37
AQQPIYIRVEG [NLRP7_Y318_V319I] 1.14
GLIPAYHRFIM [NMNAT1_Y64_V67F] 1.86
DYLEKYYKFGS [NNMT_Y24] 1.02

What follows are binders tested against SHP2 N-SH2 domain T42A in the same assay as above. Settings: peptide library: pTyr-Var.

Enrichment score, inactive:
YQKDVYDIPPS [NEDD9_Y177] 0.572
ERDTVYSSSGV [NELL2_Y350_N347D] 0.518
VSGIPYSQPKQ [NEU1_Y251_G252S] 0.69
FSPGSNERETF [NF1_Y2192_Y2192N] 0.547
TRSYKCLLLSM [NF1_Y491_Y491C] 1.55
ARKRKYFKKHE [NFIX_Y40] 0.571
EVTLTYATGIK [NFKB1_Y485_T489I] 0.714
GRDVIYKGFED [NFU1_Y194_G190R] 0.621
TSESSYFKSLN [NGEF_Y288_A286S_YF] 0.631
SEASFYKSLNL [NGEF_Y289_YF] 0.827
RSDSSYRMSAT [NHS_Y1532] 0.443
SHPSSYTTHPQ [NIPBL_Y195] 0.451
TSYSGYRCHRH [NKAPL_Y94_Y96C] 0.905
AGIENYKSRFG [NKD2_Y256_T257K] 0.61
MTYVFYRENLR [NLRP14_Y443] 1.53
MTYMFYRENLR [NLRP14_Y443_V441M] 1.32
AQQPIYIRVEG [NLRP7_Y318_V319I] 1.48
GLIPAYHRFIM [NMNAT1_Y64_V67F] 1.98
DYLEKYYKFGS [NNMT_Y24] 1.08

The binders below were run against SHP2 N-SH2 domain T52S in the same assay as above. Settings: peptide library: pTyr-Var.

Enrichment score, inactive:
YQKDVYDIPPS [NEDD9_Y177] 0.586
ERDTVYSSSGV [NELL2_Y350_N347D] 0.586
VSGIPYSQPKQ [NEU1_Y251_G252S] 0.569
FSPGSNERETF [NF1_Y2192_Y2192N] 0.569
TRSYKCLLLSM [NF1_Y491_Y491C] 1.93
ARKRKYFKKHE [NFIX_Y40] 0.429
EVTLTYATGIK [NFKB1_Y485_T489I] 0.722
GRDVIYKGFED [NFU1_Y194_G190R] 0.758
TSESSYFKSLN [NGEF_Y288_A286S_YF] 0.534
SEASFYKSLNL [NGEF_Y289_YF] 0.735
RSDSSYRMSAT [NHS_Y1532] 0.517
SHPSSYTTHPQ [NIPBL_Y195] 0.533
TSYSGYRCHRH [NKAPL_Y94_Y96C] 1.15
AGIENYKSRFG [NKD2_Y256_T257K] 0.6
MTYVFYRENLR [NLRP14_Y443] 1.67
MTYMFYRENLR [NLRP14_Y443_V441M] 1.46
AQQPIYIRVEG [NLRP7_Y318_V319I] 1.12
GLIPAYHRFIM [NMNAT1_Y64_V67F] 2.37
DYLEKYYKFGS [NNMT_Y24] 1.3

What follows are binders tested against SHP2 N-SH2 domain wild-type in the same assay as above. Settings: peptide library: pTyr-Var.

Enrichment score, inactive:
YQKDVYDIPPS [NEDD9_Y177] 0.67
ERDTVYSSSGV [NELL2_Y350_N347D] 0.547
VSGIPYSQPKQ [NEU1_Y251_G252S] 0.89
FSPGSNERETF [NF1_Y2192_Y2192N] 0.569
TRSYKCLLLSM [NF1_Y491_Y491C] 1.56
ARKRKYFKKHE [NFIX_Y40] 0.305
EVTLTYATGIK [NFKB1_Y485_T489I] 0.814
GRDVIYKGFED [NFU1_Y194_G190R] 0.792
TSESSYFKSLN [NGEF_Y288_A286S_YF] 0.59
SEASFYKSLNL [NGEF_Y289_YF] 1.18
RSDSSYRMSAT [NHS_Y1532] 0.556
SHPSSYTTHPQ [NIPBL_Y195] 0.569
TSYSGYRCHRH [NKAPL_Y94_Y96C] 0.804
AGIENYKSRFG [NKD2_Y256_T257K] 0.663
MTYVFYRENLR [NLRP14_Y443] 1.22
MTYMFYRENLR [NLRP14_Y443_V441M] 1.39
AQQPIYIRVEG [NLRP7_Y318_V319I] 1.07
GLIPAYHRFIM [NMNAT1_Y64_V67F] 1.67
DYLEKYYKFGS [NNMT_Y24] 1.4
